According to paper PMC5397059, “Design, synthesis and structure-activity relationship study of wollamide B; a new potential anti TB agent” (PLoS ONE, 2017):
Non-standard residues stand in square brackets, D forms with d. Residues, ends and D or L forms follow the SMILES beside them. dPhe(4-Cl) = N[C@H](Cc1ccc(Cl)cc1)C(=O)O; dOrn = NCCC[C@@H](N)C(=O)O

These molecules were tested on HepG2 cells. Settings: read-out: IC50 against Hep2G Cells; analogues.

Compared with `CC[C@H](C)[C@@H]1NC(=O)[C@@H](CC(C)C)NC(=O)[C@H](CC(C)C)NC(=O)[C@H](Cc2c[nH]c3ccccc23)NC(=O)[C@@H](CCCN)NC(=O)[C@H](CO)NC1=O` [Compound 10c] (cyclo(IS[dOrn]WL[dL])), `CC[C@H](C)[C@@H]1NC(=O)[C@@H](CC(C)C)NC(=O)[C@H](CC(C)C)NC(=O)[C@H](Cc2c[nH]c3ccccc23)NC(=O)[C@@H](CCCN)NC(=O)[C@H](CC(N)=O)NC1=O` [Compound 7c] (cyclo(IN[dOrn]WL[dL])) is lower in IC50: > 100 µM for the first, 50 µM for the second.

`CC[C@H](C)[C@@H]1NC(=O)[C@H]([C@@H](C)CC)NC(=O)[C@@H](CC(C)C)NC(=O)[C@H](CC(C)C)NC(=O)[C@H](Cc2c[nH]c3ccccc23)NC(=O)[C@@H](CCCN)NC1=O` [Compound 12c] (cyclo(II[dOrn]WL[dL])) and `CC(C)C[C@@H]1NC(=O)[C@H](Cc2c[nH]c3ccccc23)NC(=O)[C@@H](CCCN)NC(=O)[C@H](C)NC(=O)[C@H](C(C)C)NC(=O)[C@@H](CC(C)C)NC1=O` [Compound 4c] (cyclo(A[dOrn]WL[dL]V)) cannot be ordered by IC50: > 100 µM for the first, > 100 µM for the second.

Going from `CC(C)C[C@@H]1NC(=O)[C@H](Cc2c[nH]c3ccccc23)NC(=O)[C@@H](CCCN)NC(=O)[C@H](CC(N)=O)NC(=O)[C@H](C(C)C)NC(=O)[C@@H](Cc2ccc(Cl)cc2)NC1=O` [Compound 16c] (cyclo(L[dPhe(4-Cl)]VN[dOrn]W)) to `CC(C)C[C@H]1NC(=O)[C@@H](Cc2ccc(Cl)cc2)NC(=O)[C@H](Cc2c[nH]c3ccccc23)NC(=O)[C@@H](CCCN)NC(=O)[C@H](CC(N)=O)NC(=O)[C@H](C(C)C)NC1=O` [Compound 17c] (cyclo(N[dOrn]W[dPhe(4-Cl)][dL]V)), the IC50 rises from 60 µM to > 100 µM. The first is the more potent here.

`CC(C)C[C@H]1NC(=O)[C@H](C)NC(=O)[C@H](Cc2c[nH]c3ccccc23)NC(=O)[C@@H](CCCN)NC(=O)[C@H](CC(N)=O)NC(=O)[C@H](C(C)C)NC1=O` [Compound 2c] (cyclo(A[dL]VN[dOrn]W)) and `CC(C)C[C@@H]1NC(=O)[C@H](Cc2c[nH]c3ccccc23)NC(=O)[C@@H](CCCN)NC(=O)[C@H](CC(N)=O)NC(=O)[C@H](C(C)C)NC(=O)[C@@H](C)NC1=O` [Compound 6c] (cyclo(L[dA]VN[dOrn]W)) cannot be ordered by IC50: > 100 µM for the first, > 100 µM for the second.

`CC[C@H](C)[C@@H]1NC(=O)[C@H](Cc2c[nH]c3ccccc23)NC(=O)[C@@H](CCCN)NC(=O)[C@H](CC(N)=O)NC(=O)[C@H](C(C)C)NC(=O)[C@@H](CC(C)C)NC1=O` [Compound 19c] (cyclo(I[dL]VN[dOrn]W)) and `CC[C@H](C)[C@@H]1NC(=O)[C@H](CC(C)C)NC(=O)[C@H](Cc2c[nH]c3ccccc23)NC(=O)[C@@H](CCCN)NC(=O)[C@H](CC(N)=O)NC(=O)[C@H](C(C)C)NC1=O` [Compound 20c] (cyclo(IVN[dOrn]WL)) cannot be ordered by IC50: > 100 µM for the first, > 100 µM for the second.

`CC[C@H](C)[C@@H]1NC(=O)[C@@H](Cc2ccc(Cl)cc2)NC(=O)[C@H](CC(C)C)NC(=O)[C@H](Cc2c[nH]c3ccccc23)NC(=O)[C@@H](CCCN)NC(=O)[C@@H](CCCN)NC1=O` [Compound 18c] (cyclo(I[dOrn][dOrn]WL[dPhe(4-Cl)])) and `CC(C)C[C@@H]1NC(=O)[C@H](Cc2c[nH]c3ccccc23)NC(=O)[C@@H](CCCN)NC(=O)[C@@H](CCCN)NC(=O)[C@H](C(C)C)NC(=O)[C@@H](CC(C)C)NC1=O` [Compound 9c] (cyclo(L[dL]V[dOrn][dOrn]W)) cannot be ordered by IC50: > 100 µM for the first, > 100 µM for the second.

`CC(C)C[C@@H]1NC(=O)[C@H](C)NC(=O)[C@@H](CCCN)NC(=O)[C@H](CC(N)=O)NC(=O)[C@H](C(C)C)NC(=O)[C@@H](CC(C)C)NC1=O` [Compound 3c] (cyclo(AL[dL]VN[dOrn])) and `CC(C)C[C@@H]1NC(=O)[C@@H](Cc2ccc(Cl)cc2)NC(=O)[C@@H](CCCN)NC(=O)[C@H](CC(N)=O)NC(=O)[C@H](C(C)C)NC(=O)[C@@H](CC(C)C)NC1=O` [Compound 14c] (cyclo(L[dL]VN[dOrn][dPhe(4-Cl)])) cannot be ordered by IC50: > 100 µM for the first, > 100 µM for the second.

`CC(C)C[C@@H]1NC(=O)[C@@H](CC(C)C)NC(=O)[C@@H](CCCN)NC(=O)[C@H](CC(N)=O)NC(=O)[C@H](C(C)C)NC(=O)[C@H](Cc2c[nH]c3ccccc23)NC1=O` [Compound 21c] (cyclo(LWVN[dOrn][dL])) and `CC(C)C[C@@H]1NC(=O)[C@H](Cc2c[nH]c3ccccc23)NC(=O)[C@@H](CCCN)NC(=O)[C@H](CC(N)=O)NC(=O)[C@H](C)NC(=O)[C@@H](CC(C)C)NC1=O` [Compound 5c] (cyclo(AN[dOrn]WL[dL])) cannot be ordered by IC50: > 100 µM for the first, > 100 µM for the second.

Same assay, conditions: up to a concentration of 50 μM

`CC(C)C[C@@H]1NC(=O)[C@H](Cc2c[nH]c3ccccc23)NC(=O)[C@@H](CCCN)NC(=O)[C@H](CC(N)=O)NC(=O)[C@H](C(C)C)NC(=O)[C@@H](CC(C)C)NC1=O` [Compound 1c, wollamide B] (cyclo([dOrn]WL[dL]VN)) was tested, and the “sign of toxicity against HepG2 cells” value was “did not show sign of toxicity”.
